{"source": "PubChem BioAssay AID1508623", "about": "(National Center for Advancing Translational Sciences (NCATS), 2021)", "note": "Out of some 48,000 compounds screened, about 450 (0.94%) were called active. Roughly 19% stayed inconclusive and do not appear here. Calls follow the shape of the dose curve; as a rule, active = well fitted inhibition curve with a large enough effect; inconclusive = small, poorly fitted or top-dose-only effect; inactive = no such curve, though single readings can be large or run the other way. The list shows a part of the results."}
{"test": "Primary qHTS for Identification of Small Molecule Inhibitors of Huntingtin Promoter Activity; also: nearly all actives have a fitted effect of over 50% in size", "settings": "HEK293 HTT promoter firefly luciferase reporter (activity 0% = vehicle and -100% = no light), 24 h; series mostly up to 57.5 µM; activity change, negative = inhibition: at the top concentration", "outline": "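Luminescence was read after Dual-Glo reagent and a 10 min room-temperature incubation. Values were normalized to vehicle (0% activity) and zero RLU (-100% activity). Reporter HEK293 cells had been exposed to compounds (up to 57.5 uM final) for 24 h.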"}
{"smiles": "CCCc1nn2c(=O)cc(COC(=O)c3ccc(NC(=O)COc4ccc(F)cc4)cc3)nc2s1", "activity change, negative = inhibition": "inactive: -29.9%"}
{"smiles": "CN(C)c1ccc(CNC(=O)C2CCN(c3nc4ccccc4[nH]3)CC2)cc1", "activity change, negative = inhibition": "inactive: -4.34%"}
{"smiles": "Cc1cc(S(=O)(=O)N2CCN(Cc3noc(CCC(=O)N4CCCCC4)n3)CC2)ccc1F", "activity change, negative = inhibition": "inactive: -28.8%"}
{"smiles": "COC(=O)c1cc2occc2n1Cc1nc(-c2ccccc2)oc1C", "activity change, negative = inhibition": "inactive: -17.6%"}
{"smiles": "COc1ccc(Cn2c(CCC(=O)NCc3ccc(Cl)cc3)nc3cccnc32)cc1", "activity change, negative = inhibition": "inactive: -11%"}
{"smiles": "CCOC(=O)COc1ccc(C2C(C(=O)OC)=C(C)NC3=C2C(=O)c2ccccc23)cc1Cl", "note": "(stereo not drawn)", "activity change, negative = inhibition": "inactive: -6.05%"}
{"smiles": "COc1cccc(CNC(=O)c2cnc3sc(N4CCCC4)nn3c2=O)c1OC", "activity change, negative = inhibition": "inactive: -2.42%"}
{"smiles": "CSc1ccc(CCNC(=O)NCc2noc3ccccc23)cc1", "activity change, negative = inhibition": "inactive: -30.2%"}
{"smiles": "Cc1ccc(C(=O)NCC(c2ccc3c(c2)OCO3)N2CCOCC2)cc1C", "note": "(stereo not drawn)", "activity change, negative = inhibition": "inactive: -21%"}
{"smiles": "CCOC(=O)c1cc(S(=O)(=O)Nc2cc(OC)ccc2OC)[nH]n1", "activity change, negative = inhibition": "inactive: -18.5%"}
{"smiles": "COc1ccc(CNc2nc(-c3ccco3)nn2S(=O)(=O)c2ccc(Cl)cc2)cc1OC", "activity change, negative = inhibition": "inactive: -8.36%"}
{"smiles": "COc1ccc(Cl)cc1NC(=O)c1cc2c(=O)n3ccccc3nc2s1", "activity change, negative = inhibition": "inactive: 6.98%"}
{"smiles": "COc1ccc(-c2c(C#N)c(SCC(=O)Nc3ccccc3C)nc(C)c2C(=O)Nc2ccc(Cl)cc2)cc1", "activity change, negative = inhibition": "inactive: -27.9%"}
{"smiles": "COC(=O)c1c(NC(=O)CCCOc2cccc(C)c2)sc2c1CCC2", "activity change, negative = inhibition": "inactive: -14.5%"}
{"smiles": "Cc1cc(O)c(C(c2cccc(F)c2)N2CCN(c3ccccc3)CC2)c(=O)n1Cc1ccco1", "note": "(stereo not drawn)", "activity change, negative = inhibition": "inactive: -5.82%"}
{"smiles": "Cc1cc2c(cc1S(N)(=O)=O)S(=O)(=O)CCC2", "activity change, negative = inhibition": "inactive: 11.7%"}
{"smiles": "C[C@H]1O[C@H](O[C@H]2[C@H](O)[C@@H](O)[C@@H](O[C@H]3[C@H](O)[C@@H](O)[C@H](O)O[C@@H]3CO)O[C@@H]2CO)[C@H](O)[C@@H](O)[C@@H]1N[C@H]1C=C(CO)[C@@H](O)[C@H](O)[C@H]1O", "activity change, negative = inhibition": "inactive: 4.76%"}
{"smiles": "Cc1cc(C)n(-c2nnc(Nc3ccc(C)c(C)c3)c3ccccc23)n1", "activity change, negative = inhibition": "inactive: -21.5%"}
{"smiles": "O=C1Nc2ccccc2Oc2cc(Oc3ccccc3)ccc21", "activity change, negative = inhibition": "inactive: -12.3%"}
{"smiles": "Cc1ccc(C)c(CN2C(=O)c3ccccc3S(=O)(=O)c3ccc(C(=O)OCC4CCCO4)cc32)c1", "note": "(stereo not drawn)", "activity change, negative = inhibition": "inactive: -15.3%"}
{"smiles": "CCCC(=O)Nc1nnc(S(=O)(=O)N(C)Cc2ccc(Cl)cc2)s1", "activity change, negative = inhibition": "inactive: 4.67%"}
{"smiles": "CC(C)c1ccc(S(=O)(=O)c2nnn3c2nc(N2CCCC2)c2sccc23)cc1", "activity change, negative = inhibition": "inactive: -6.95%"}
{"smiles": "Cn1c(=O)[nH]c2cc(-c3noc(-c4ccc(Br)cc4)n3)ccc21", "activity change, negative = inhibition": "inactive: -4.64%"}
{"smiles": "Cc1cccc(-c2nn3c(=O)cc(CN4CCN(C(=O)/C=C/c5ccccc5)CC4)nc3s2)c1", "activity change, negative = inhibition": "inactive: -24.5%"}
{"smiles": "Cc1cnc(Nc2cccc(CN3CCOCC3)c2)nc1Nc1cccc(S(=O)(=O)NC(C)(C)C)c1", "activity change, negative = inhibition": "inactive: -8.5%"}
{"smiles": "COc1cc2c(C(=O)Nc3cc(OC)c(OC)c(OC)c3)cn(C)c(=O)c2cc1OC", "activity change, negative = inhibition": "inactive: -4.66%"}
{"smiles": "O=C(CC1N=C2c3ccccc3N=C(SCc3ccc(F)cc3)N2C1=O)NCc1ccc2c(c1)OCO2", "note": "(stereo not drawn)", "activity change, negative = inhibition": "inactive: 0%"}
{"smiles": "Cc1ccc(NC(=O)CSc2nnc3ccc4ccccc4n23)cc1", "activity change, negative = inhibition": "inactive: -12.6%"}
{"smiles": "O=C(NCCN1CCN(c2cccc(Cl)c2)CC1)Nc1ccccc1", "activity change, negative = inhibition": "inactive: -17.8%"}
{"smiles": "CCc1ccc(NC(=O)c2ccc(-c3ccccc3)s2)cc1", "activity change, negative = inhibition": "inactive: 22%"}
{"smiles": "CCOC(=O)C1CCN(c2ncnc3c2nc2n3CCCCC2)CC1", "activity change, negative = inhibition": "inactive: 3.37%"}
{"smiles": "Cc1cccc(C(=O)NCC(c2ccco2)S(=O)(=O)c2cccs2)c1", "note": "(stereo not drawn)", "activity change, negative = inhibition": "inactive: -5.78%"}
{"smiles": "Cc1cccc(NC(=O)c2ccc(-c3ccccc3)s2)c1", "activity change, negative = inhibition": "inactive: 44.6%"}
{"smiles": "CCc1cnc2c(c1SCC(=O)NCc1ccccc1Cl)c(=O)n(C)c(=O)n2C", "activity change, negative = inhibition": "inactive: -5.36%"}
{"smiles": "CCC(Oc1ccccc1)C(=O)Nc1nnc(S(=O)(=O)N(CC)CC)s1", "note": "(stereo not drawn)", "activity change, negative = inhibition": "inactive: -24.7%"}
{"smiles": "Brc1cccc(-c2nnn3c2nc(NCc2ccc4c(c2)OCO4)c2ccccc23)c1", "activity change, negative = inhibition": "inactive: 20.6%"}
{"smiles": "COc1ccc(-n2ncc(C(=O)NCc3ccco3)c2C2CCN(C(=O)OC(C)(C)C)CC2)cc1", "activity change, negative = inhibition": "inactive: 2.38%"}
{"smiles": "CCCNC(=O)Cn1c(=O)n(CC2CCC(C(=O)NC)CC2)c(=O)c2sccc21", "note": "(stereo not drawn)", "activity change, negative = inhibition": "inactive: 1.75%"}
{"smiles": "CCN(CC)S(=O)(=O)c1ccc2c(c1)N(CC(=O)Nc1ccccc1F)C(=O)C1CCCN21", "note": "(stereo not drawn)", "activity change, negative = inhibition": "inactive: -10.1%"}
{"smiles": "Cc1ccc(NC(=O)/C(C#N)=C/c2ccc(-c3ccc(Cl)c(C(=O)O)c3)o2)cc1C", "activity change, negative = inhibition": "inactive: 22.7%"}
{"smiles": "COc1cccc(NC(=O)C2CCCN(S(=O)(=O)c3cn(C(C)C)cn3)C2)c1", "note": "(stereo not drawn)", "activity change, negative = inhibition": "inactive: -26.7%"}
{"smiles": "NCCNCCNCCNCCN", "activity change, negative = inhibition": "inactive: -8.28% [at 11.5 µM]"}
{"smiles": "Cc1cccc(C(=O)Nc2ccc(S(=O)(=O)N3CCC(c4nc5ccccc5s4)CC3)cc2)c1", "activity change, negative = inhibition": "inactive: -19.9%"}
{"smiles": "Cc1cc(C)c(NC(=O)CSc2ncc3c(n2)-c2cc(Cl)ccc2N(C)S3(=O)=O)c(C)c1", "activity change, negative = inhibition": "inactive: -5.59%"}
{"smiles": "CCC(C)(C)NC(=O)C1CCN(S(=O)(=O)c2ccc3c(c2)CCCN3C(C)=O)CC1", "activity change, negative = inhibition": "inactive: -19.8%"}
{"smiles": "Cc1ccc(CN2CCC(CNC(=O)c3cnn(-c4ccccc4)c3C3CCN(C(=O)OC(C)(C)C)CC3)CC2)cc1", "activity change, negative = inhibition": "inactive: -1.53%"}
{"smiles": "Cc1ccc2c(c1)C(=O)C(=O)N2Cc1ccc(OCCC(C)C)cc1", "activity change, negative = inhibition": "inactive: -4.76%"}
{"smiles": "COc1ccc(NC(=O)c2oc3ccc(S(=O)(=O)N4CCCCC4)cc3c2C)cc1Cl", "activity change, negative = inhibition": "inactive: -22.7%"}
